Reference: PMC7819943, “Rice protein-binding microarrays: a tool to detect cis-acting elements near promoter regions in rice”
The other results are listed elsewhere or left out.

These sequences were tested against T1, OsWOX13 (Oryza sativa, UniProt Q5QMM3 1-267) (assay: protein-binding microarray (RPBM); PBS, 2% BSA, 51.3 ng/ul salmon testes DNA, 50 uM zinc acetate, 200 nM TF, 25 C, 1 h; high values mean tight binding). Conditions: protein: recombinant; tags: N-terminal polyhistidine and DsRed monomer fusion (pET32a); label: CyDye5-dUTP incorporated in the synthesized complementary strand; 3' TTTTT single-stranded linker to array surface; dsDNA, one strand shown.
T1 sequence: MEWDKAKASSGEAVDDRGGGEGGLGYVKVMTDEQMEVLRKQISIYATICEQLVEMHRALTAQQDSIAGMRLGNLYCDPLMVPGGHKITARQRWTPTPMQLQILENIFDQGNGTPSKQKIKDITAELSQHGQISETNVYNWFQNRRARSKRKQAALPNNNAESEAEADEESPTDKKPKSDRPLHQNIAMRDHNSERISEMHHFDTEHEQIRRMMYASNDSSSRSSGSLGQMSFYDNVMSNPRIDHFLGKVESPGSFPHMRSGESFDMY
In short: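 A custom Agilent array was converted to double-stranded form by primer extension with Cy5-dUTP and blocked with 2% BSA. Protein at 200 nM in PBS with 2% BSA, salmon testes DNA and 50 µM zinc acetate was applied for 1 h at 25 °C, followed by washing. The proteins were polyhistidine–DsRed N-terminal fusions of transcription factors, expressed in E. coli BL21-CodonPlus and Ni–NTA-purified. The binding signal is per-feature fluorescence intensity (arbitrary units) from an Axon 4000B scanner.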

Sequence | binding signal
CCACCTGATTTGCTCTTTGGAAACATAATGTATGCCTGCTCGGAGTCACCTAGTGCAG | 26600 fluorescence intensity (a.u.)
TTCGACATAATACATGTGATTGCAAACTTGTGAGTCACACCGGAGTCACCTAGTGCAG | 14900 fluorescence intensity (a.u.)
GTTCGTTAAATTTTAGAAGTGATTTGGCACGATTCATATACGGAGTCACCTAGTGCAG | 4160 fluorescence intensity (a.u.)
TTATGATTTCAAGGTTAATGCTGCAGTTTCAAACAAGTTACGGAGTCACCTAGTGCAG | 3480 fluorescence intensity (a.u.)
TATAATCAAATTGCCATGCTTCAATTTTCAACGATGTTTTCGGAGTCACCTAGTGCAG | 4820 fluorescence intensity (a.u.)
TCTCTAATTACTATTATTTTCTAAATCTATTTGCATATGACGGAGTCACCTAGTGCAG | 21200 fluorescence intensity (a.u.)
CTTAACTGGTTATGTTTCCTGTGATGTAACTAGCTCACTTCGGAGTCACCTAGTGCAG | 24200 fluorescence intensity (a.u.)
AGCACGTAATTATATATGTTCTCAGATGATGTGATAGGGACGGAGTCACCTAGTGCAG | 21900 fluorescence intensity (a.u.)
TCAGAATCGTGATTGTGTGAAGTACTAAGAATAGATCGGCCGGAGTCACCTAGTGCAG | 5120 fluorescence intensity (a.u.)
ATATTTTGACAGTTAATTATTAGGATCAATATAAAATAATCGGAGTCACCTAGTGCAG | 15800 fluorescence intensity (a.u.)
ATGACTGGCAAACAACCGTCAGTCGAGCAACTGCCATCCACGGAGTCACCTAGTGCAG | 3750 fluorescence intensity (a.u.)
GTACTGGATTGAATTTGAAGATGTTTATTTGAGCGTATATCGGAGTCACCTAGTGCAG | 5520 fluorescence intensity (a.u.)
AACTAATGAAAACAGAGTGATATTTCTGCTCTTCTTGCTACGGAGTCACCTAGTGCAG | 4610 fluorescence intensity (a.u.)
TCTCTCTTCCATATAAATTTATAGTTGACTTACTATTATCCGGAGTCACCTAGTGCAG | 3450 fluorescence intensity (a.u.)
GATAATTTAGCAATAAGGAATTGAAATCATAGTACAAAGTCGGAGTCACCTAGTGCAG | 11400 fluorescence intensity (a.u.)
GTATAATTGACAGATGAATTTCACGCAAGAGTATATTGAGCGGAGTCACCTAGTGCAG | 55900 fluorescence intensity (a.u.)
TTCCAGTTTCTATACTTAATTGCGCACGGTTGAATACATACGGAGTCACCTAGTGCAG | 7840 fluorescence intensity (a.u.)
TAGGAATTTCTCTAATTTATTAAAGCGCCACGTGTCAGTTCGGAGTCACCTAGTGCAG | 4760 fluorescence intensity (a.u.)
TATAGATTGATGCCAAATCTAACCTAAGTTATTAGTTATTCGGAGTCACCTAGTGCAG | 24900 fluorescence intensity (a.u.)
GATGATTTGATTAGATTAGGTTAGGTTTGTTATTCACCTACGGAGTCACCTAGTGCAG | 65500 fluorescence intensity (a.u.)
AATAATTATTTCTTGGTCTTTGGATTAAGGGTGATTGTGCCGGAGTCACCTAGTGCAG | 26600 fluorescence intensity (a.u.)
GGTAGTCAATTATAGTGGATACAAATATCCTAGCTGGTTTCGGAGTCACCTAGTGCAG | 6080 fluorescence intensity (a.u.)
TCAGATTAGCATTTTGGCACATGAATCTTGGCCGTCAATACGGAGTCACCTAGTGCAG | 4000 fluorescence intensity (a.u.)
ATGGGATTGAAAACGATCAAATTAATATGTACAGTACTGACGGAGTCACCTAGTGCAG | 24800 fluorescence intensity (a.u.)
GTGGTTATTGGATTGGAACCGACGGCGACTAGCCTGAGAGCGGAGTCACCTAGTGCAG | 3220 fluorescence intensity (a.u.)
CATCATAATGATGTTGACATGAAATCATAAATACTTTCTACGGAGTCACCTAGTGCAG | 5220 fluorescence intensity (a.u.)
GTTAATTAATTTCGTGTGCGAACTAAAACGACTAATCCGACGGAGTCACCTAGTGCAG | 22700 fluorescence intensity (a.u.)

Sequence | binding signal
CTTAATTAATTATAATCTCTAGTTAGTACAATTAATTAGCCGGAGTCACCTAGTGCAG | 49100 fluorescence intensity (a.u.)
GGAACAATTATAGATTTACCACTTATTCTAATCGGTACCGCGGAGTCACCTAGTGCAG | 7320 fluorescence intensity (a.u.)
ATACCCGATTTAAATTTGAATTTGAATTATATTTAAATTCCGGAGTCACCTAGTGCAG | 5060 fluorescence intensity (a.u.)
GTAACTTATTCTTAATTGCTTTTGATGAGTTGACTTCGTTCGGAGTCACCTAGTGCAG | 16300 fluorescence intensity (a.u.)
TCATTGATTGATTGGTACTACTACTGCTAGAAGAAAAGGCCGGAGTCACCTAGTGCAG | 55200 fluorescence intensity (a.u.)
CGGGCAACACATTCCTTGATTGAGCCAAGCTCGGTAACACCGGAGTCACCTAGTGCAG | 7920 fluorescence intensity (a.u.)
ACCTATATATTAATGATAGGTAATTTGACATTCAACCATACGGAGTCACCTAGTGCAG | 13300 fluorescence intensity (a.u.)
AAACCTGATCAGTTTGATTTAATTTGAGTTAATTTAGCTTCGGAGTCACCTAGTGCAG | 17100 fluorescence intensity (a.u.)
GTTAAATTAATAATGATATGCTGGGTAGCTAGCAATCTTGCGGAGTCACCTAGTGCAG | 39400 fluorescence intensity (a.u.)
CAATCTCTGATGATTGGCCCATCACCACTATATATATGATCGGAGTCACCTAGTGCAG | 21800 fluorescence intensity (a.u.)
ATGGGATTGGGTGTATGACAATGATGCTACTAATCCCATTCGGAGTCACCTAGTGCAG | 3840 fluorescence intensity (a.u.)
ATGTTTGGACACTAATTATAAATATTAAACGTAGACTATTCGGAGTCACCTAGTGCAG | 5950 fluorescence intensity (a.u.)
GAGTTAACAGATATGGTCCGAACCTGTCGGGCGAGTTGACCGGAGTCACCTAGTGCAG | 7220 fluorescence intensity (a.u.)
TACTGCTCACCATTGATTATTTCCATGGAAATACAGTAGGCGGAGTCACCTAGTGCAG | 4010 fluorescence intensity (a.u.)
AGTTAATGAGTTATTAAGAACAGTTAACTACCGAAGGAAGCGGAGTCACCTAGTGCAG | 15600 fluorescence intensity (a.u.)
GAGGTGAAGGTAAACAAATTGAATTGATCAAACGACGACGCGGAGTCACCTAGTGCAG | 6250 fluorescence intensity (a.u.)
GTAAGTGATATAAATCTTTTCTATGATTGCGAAAAGTAAACGGAGTCACCTAGTGCAG | 11500 fluorescence intensity (a.u.)
CTTAATGAGAGAAGAAAATTAGAGATATAATTTGGATAGTCGGAGTCACCTAGTGCAG | 13400 fluorescence intensity (a.u.)
AAACAAATTTTCAGTTTTGTCAATTCCATCCTAAACTTTGCGGAGTCACCTAGTGCAG | 5320 fluorescence intensity (a.u.)
CATCTTATCTATCTAGATTTGTAATTCTAAGATGTGTCTTCGGAGTCACCTAGTGCAG | 4570 fluorescence intensity (a.u.)
GGCTAATGATGATGCGGATGGATGCTGCTAATGACTGTGGCGGAGTCACCTAGTGCAG | 14200 fluorescence intensity (a.u.)
CAATTTGACAGATATAATTATAGTACAATCGTAGTATAATCGGAGTCACCTAGTGCAG | 33200 fluorescence intensity (a.u.)
GAAGATGATGATGATTTAGCATGCAAATGAGCAGTTGACACGGAGTCACCTAGTGCAG | 13800 fluorescence intensity (a.u.)
ACGTTATTAATTACTTAGTACTACTATGAGTTAACTATGGCGGAGTCACCTAGTGCAG | 18500 fluorescence intensity (a.u.)
ATTAAACTTGCTCTAAACTCGTAATTTGTCCCGCTAAAATCGGAGTCACCTAGTGCAG | 3300 fluorescence intensity (a.u.)
TTAAAACTCAATTAATCACACGTTATTACCACCTCGTTTTCGGAGTCACCTAGTGCAG | 7750 fluorescence intensity (a.u.)
ATATTAGTTGATAATTACTGGCCTACTGGATCAATCTTGACGGAGTCACCTAGTGCAG | 7940 fluorescence intensity (a.u.)
